For one molecule, binding results are on record in paper PMC6633398.

Protein sequences, listed by entry. Tags and fused reporters are not part of them. Lines headed by an entry give the natural chain unless they say otherwise; changes in a name come on top.
UniProt O43681: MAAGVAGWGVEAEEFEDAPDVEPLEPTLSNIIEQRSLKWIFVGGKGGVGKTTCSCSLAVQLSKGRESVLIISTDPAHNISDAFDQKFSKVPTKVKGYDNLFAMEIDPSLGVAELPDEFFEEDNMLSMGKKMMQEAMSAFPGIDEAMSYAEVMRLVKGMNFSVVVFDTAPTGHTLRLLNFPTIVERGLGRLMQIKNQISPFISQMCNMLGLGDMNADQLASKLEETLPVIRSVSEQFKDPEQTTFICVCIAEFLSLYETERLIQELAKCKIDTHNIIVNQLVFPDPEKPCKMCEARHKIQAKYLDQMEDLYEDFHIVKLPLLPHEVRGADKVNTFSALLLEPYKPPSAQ

No constants are given. Whether binding was seen depends on the method and setting. In cells and extracts the contact can be indirect. Some entries that bind do so weakly or less than the wild type.

Assay [1] concerns the target c-Myc–TRC40_(D74E), ATPase-impaired trap mutant of TRC40 (UniProt O43681). Nature of the assay: co-IP; c-Myc–TRC40 variants expressed in transfected HEK293 cells; precipitated with anti-c-Myc agarose from the cytosolic fraction (180,000 g, 1 h) in the absence of detergent; IP buffer 50 mM HEPES, 150 mM NaCl, 1.5 mM MgCl2, 1 mM EGTA, pH 7.4; 2.5 h; endogenous TA proteins detected by western blot. A general note: In western blotting, separated proteins are transferred to a membrane and probed.

The target of assay [2] is c-Myc–TRC40_(D74E/L190K/I193K), charge-inverted triple mutant (UniProt O43681). The assay is described as above.

B1: CASP (encoded by CUX1; isoform 4) (protein, UniProt Q13948 1-678)
chain: MAANVGSMFQYWKRFDLQQLQRELDATATVLANRQDESEQSRKRLIEQSREFKKNTPEDLRKQVAPLLKSFQGEIDALSKRSKEAEAAFLNVYKRLIDVPDPVPALDLGQQLQLKVQRLHDIETENQKLRETLEEYNKEFAEVKNQEVTIKALKEKIREYEQTLKNQAETIALEKEQKLQNDFAEKERKLQETQMSTTSKLEEAEHKVQSLQTALEKTRTELFDLKTKYDEETTAKADEIEMIMTDLERANQRAEVAQREAETLREQLSSANHSLQLASQIQKAPDVEQAIEVLTRSSLEVELAAKEREIAQLVEDVQRLQASLTKLRENSASQISQLEQQLSAKNSTLKQLEEKLKGQADYEEVKKELNILKSMEFAPSEGAGTQDAAKPLEVLLLEKNRSLQSENAALRISNSDLSGRCAELQVRITEAVATATEQRELIARLEQDLSIIQSIQRPDAEGAAEHRLEKIPEPIKEATALFYGPAAPASGALPEGQVDSLLSIISSQRERFRARNQELEAENRLAQHTLQALQSELDSLRADNIKLFEKIKFLQSYPGRGSGSDDTELRYSSQYEERLDPFSSFSKRERQRKYLSLSPWDKATLSMGRLVLSNKMARTIGFFYTLFLHCLVFLVLYKLAWSESMERDCATFCAKKFADHLHKFHENDNGAAAGDLWQ
Turning to B1, the binding result in assay [1] and in assay [2] was “binds” in each case.
